PubChem BioAssay AID504832 (National Center for Advancing Translational Sciences (NCATS), 2011)
In all, about 310,000 compounds went through this assay and about 18,000 (5.8%) were called active. Inconclusive results, whose numbers are uncertain, are shown with a selection of clear calls. The call rests on the fitted dose curve; in most records, active means well fitted inhibition curve with a large enough effect; inconclusive means small, poorly fitted or top-dose-only effect, or another doubt; inactive means no such curve, though single readings can be large or run the other way. No potency is given beside an inconclusive call; the fits are too rough.

Experiment: Primary qHTS for delayed death inhibitors of the malarial parasite plastid, 48 hour incubation
Settings: P. falciparum luciferase growth in erythrocytes; series mostly up to 28.7 µM; activity change, negative = inhibition: at the top concentration
In short: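 Cell-based growth assay: transgenic P. falciparum expressing firefly luciferase, cultured in red cells within RPMI 1640 containing 0.5% w/v Albumax, 24 mM bicarbonate and gentamycin. A drop in luciferase activity indicates inhibition.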
On the % scale 0 is the no-effect control and ±100 the full control effect; potency means the concentration at half of the fitted maximal effect; tags describe the fitted curve by direction and shape.

Compound | activity change, negative = inhibition | Potency
Cc1ccc(C(=O)Nc2ccnc(-c3ccncc3)n2)cc1 | inactive: -4.55% | –
COc1cc(C(=O)Nc2ccc(S(=O)(=O)Nc3cnc4ccccc4n3)cc2)cc(OC)c1OC | – | inconclusive [inhibitor, partial curve, poor fit]
CN(C)C(C)(C)/C=C/C(O)(c1ccccc1)c1ccccc1 | inactive: -1.79% | –
c1csc(COc2ccccc2CNC2CCCCC2)c1 | – | inconclusive [inhibitor, single point]
Cc1nn(Cc2ccccc2)c(C)c1C(=O)OCC(=O)Nc1ccccc1SCC#N | – | inconclusive [inhibitor, single point]
C=CCNC(=S)N/N=C/c1ccc(N(CC)Cc2ccccc2)cc1 | – | active: 6.57 µM
N#Cc1cccnc1N1CCN(C(=O)COCC(=O)O)CC1 | – | inconclusive [inhibitor, single point]
COc1cc2c(cc1OC)C(c1ccccc1)N(C(=O)C(C)(C)C)CC2 (stereo unspecified) | inactive: 30.3% | –
CCOC(=O)c1c(NC(=O)Cn2c(C)nc3ccccc32)sc2c1CCC2 | – | inconclusive [inhibitor, single point]
COc1ccccc1N1CCN(S(=O)(=O)c2c(C)sc3ncn(CC(=O)NCCN(C)C)c(=O)c23)CC1 | inactive: -5.03% | –
CCCC(=O)NC(c1ccc(Cl)cc1)c1ccc2cccnc2c1O (stereo unspecified) | – | inconclusive [inhibitor, full curve]
CC(Cc1ccccn1)NC(=O)CCc1nnc(C2CCCCC2)o1 (stereo unspecified) | inactive: 0% | –
C[C@@H]1CC[C@@]23COC(=O)C2=CCC[C@@H]3[C@@]1(C)CC/C(=C/CO)CO | – | inconclusive [inhibitor, single point]
COc1ccccc1CNCC(=O)Nc1cc(S(=O)(=O)N2CCCCCC2)ccc1Cl | – | active: 9.28 µM
CC(=O)c1cc(-c2ccccc2)n(CCC(=O)NC2CCCCCC2)c1C | – | inconclusive [inhibitor, partial curve, poor fit]
O=P(OC1CCCCC1)(OC1CCCCC1)C(O)c1c(Cl)cccc1Cl (stereo unspecified) | – | active: 10.4 µM
CCOc1ccc2[nH]c3c(N4CCC5(CC4)OCCO5)ncnc3c2c1 | – | inconclusive [inhibitor, partial curve, poor fit]
Cc1ccc(Cl)cc1Nc1nc(-c2sc(NC(=O)C(C)(C)C)nc2C)cs1 | – | active: 8.28 µM
Cc1ccc(C(c2sc3nc(C)nn3c2O)N2CCN(C(=O)c3ccco3)CC2)cc1 (stereo unspecified) | – | inconclusive [inhibitor, partial curve, poor fit]
O=C(N/N=C/c1ccc(O)c(O)c1)C1c2ccccc2Oc2ccccc21 | – | inconclusive [inhibitor, single point]
O=C(c1ccco1)N1CCN(c2ncnc3scc(-c4ccc(F)cc4)c23)CC1 | – | inconclusive [inhibitor, single point]
Cc1ccc(-n2nc3c(c2NC(=O)c2ccc4c(c2)OCO4)CSC3)c(C)c1 | – | inconclusive [inhibitor, partial curve, poor fit]

Compound | activity change, negative = inhibition | Potency
C=CCOc1ccc(C2C(C#N)=C(N)N(N(C)C)C3=C2C(=O)CCC3)cc1 (stereo unspecified) | – | inconclusive [inhibitor, partial curve]
COc1ccc(C(=O)Nc2ccc(NC(=O)c3cccc(F)c3)cn2)cc1 | – | inconclusive [inhibitor, single point]
CCC(c1nnnn1Cc1ccco1)N(Cc1cc2cc(OC)ccc2[nH]c1=O)C1CCCCC1 (stereo unspecified) | – | active: 11.7 µM
COc1cc2ncnc(NCc3ccccc3)c2cc1OC | – | inconclusive [inhibitor, single point]
CN(Cc1ccccc1)C(=O)c1ncn(Cc2ccccc2)c1C(=O)N(C)Cc1ccccc1 | – | inconclusive [inhibitor, partial curve, poor fit]
CC(=O)c1cc2c(cc1NC(=O)CCc1ccccc1)OCO2 | inactive: 3.51% | –
CCn1c(=O)cc(SCC(=O)N2CCN(c3ccccc3OC)CC2)c2ccccc21 | – | inconclusive [inhibitor, partial curve]
Cc1ccc([N+](=O)[O-])c(OCCN2CCCCCC2)c1 | inactive: -4.62% | –
CCOC(=O)C1CCN(C(=O)C2CCN(S(=O)(=O)c3ccc4c(c3)CC(C)N4C(C)=O)CC2)CC1 (stereo unspecified) | – | inconclusive [inhibitor, partial curve, poor fit]
O=C1CCCc2ccccc2N1Cc1ccc(Cl)cc1Cl | – | inconclusive [inhibitor, single point]
Cc1cccc(NC(=O)Cn2c(C)c(C#N)c3ccccc32)c1C | – | active: 2.08 µM
COc1cc(/C=C/C(=O)OCC(=O)N2CCCc3ccccc32)ccc1OCC#N | – | inconclusive [inhibitor, partial curve, poor fit]
COc1ccc(CCNC(=O)Cn2nc(C)c3c(C)n(-c4ccc(C)cc4)nc3c2=O)c(OC)c1 | – | inconclusive [inhibitor, single point]
CCOc1ccc(S(=O)(=O)N2CCN(C(=S)NC3CC3)CC2)cc1 | – | active: 4.15 µM
CCOC(=O)C(=CNNc1cccc(Cl)c1)C(=O)OCC | – | inconclusive [inhibitor, partial curve, poor fit]
C[C@H](NC(=O)c1[nH]cnc1C(=O)Nc1ccc(Cl)cc1)C(=O)OC(C)(C)C | – | inconclusive [inhibitor, single point]
CCOC(=O)c1ccccc1NC(=O)C1COc2ccccc2O1 (stereo unspecified) | – | inconclusive [inhibitor, single point]
CCOc1ccc(N2C(=O)C3C(C2=O)C3(c2ccccc2)c2ccccc2)cc1 (stereo unspecified) | – | inconclusive [inhibitor, partial curve]
CC(NC(=O)Cn1cnnn1)C12CC3CC(CC(C3)C1)C2 (stereo unspecified) | inactive: 28.9% | –
COc1ccc(C(=O)NCCNc2ncc(C(F)(F)F)cc2Cl)cc1[N+](=O)[O-] | – | inconclusive [inhibitor, single point]
COc1ccccc1C(=O)N1C(CC(=O)Nc2cc(Cl)ccc2C)C(=O)NC2CCCCC21 (stereo unspecified) | – | inconclusive [inhibitor, single point]
CCOc1ccc(NS(=O)(=O)c2cc(OCC(N)=O)c(C)cc2Cl)cc1 | – | active: 1.47 µM

Compound | activity change, negative = inhibition | Potency
COc1ccc(-c2nn(CC(=O)Nc3ccc(Cl)c(Cl)c3)c(=O)c3ccccc23)cc1 | – | inconclusive [inhibitor, partial curve]
CCOc1ccccc1N(C(=O)CNC(=O)c1ccco1)C(C(=O)NC1CCCC1)c1cccnc1 (stereo unspecified) | – | inconclusive [inhibitor, partial curve]
COCCSc1nnc(NC(=O)CSc2ccccc2)s1 | inactive: 3.18% | –
Cc1ccc(S(=O)(=O)Nc2cccc(C(=O)NCC(c3ccco3)N3CCCC3)c2)cc1F (stereo unspecified) | – | inconclusive [inhibitor, single point]
CS(=O)(=O)N1CCN=C1SCc1ccc([N+](=O)[O-])cc1 | inactive: -18.2% | –
Cn1c2ccccc2c(=O)c2c(=O)n(Cc3ccco3)c(-c3ccc(F)cc3)nc21 | – | inconclusive [inhibitor, single point]
CCOC(=O)N1CCC(NC(=S)Nc2ccc3nc(N4CCN(C)CC4)cc(C)c3c2)CC1 | – | inconclusive [inhibitor, single point]
COc1ccc(OC)c(C(C(=O)NCc2ccco2)N(C(=O)Cn2nnc3ccccc32)C2CC2)c1 (stereo unspecified) | – | inconclusive [inhibitor, single point]
COc1ccc(CCC(=O)Nc2cccc(S(=O)(=O)N3CCCCCC3)c2)cc1 | – | inconclusive [inhibitor, single point]
O=C(CSc1ccc(Cl)cc1)Nc1ccccc1N1CCN(C(=O)c2ccccc2)CC1 | – | inconclusive [inhibitor, single point]
CC(=O)c1c(N=CN(C)C)nc(C)nc1-c1ccccc1 | inactive: 33.4% | –
CC(=O)c1ccccc1OCCOc1ccccc1C(C)=O | – | inconclusive [inhibitor, single point]
COc1ccc(-c2nc(CN3CCN(C(=O)c4ccco4)CC3)c(C)o2)cc1OC | – | inconclusive [inhibitor, partial curve]
COc1ccc(N2CCN(C(=O)c3ccc4c(=O)n5c(nc4c3)CCCCC5)CC2)cc1 | – | inconclusive [inhibitor, single point]
CCCc1ccc(-c2ccc(/C=C/C(=O)O)cc2)nc1 | inactive: 81.9% | –
O=C(NC1CCCC1)c1cc(-c2ccccc2O)on1 | inactive: -25.7% | –
COc1ccc2[nH]cc(CCn3ccc(O)c(C/C=C/c4ccccc4)c3=O)c2c1 | – | active: 9.28 µM
Cc1cccc(C(=O)N2CCC(n3nnc4cc(F)ccc43)CC2)c1 | – | inconclusive [inhibitor, single point]
Cc1[nH]c2ccccc2c1/C=C/c1nc2ccccc2c(=O)n1-c1cccc([N+](=O)[O-])c1 | – | active: 2.08 µM
COc1c2c(nc3occc13)C(CC=C(C)C)(OC)C(OC(C)=O)CC2 (stereo unspecified) | – | inconclusive [inhibitor, partial curve]
COc1ccc(/C=C/C(=O)c2cc(F)ccc2OC(=O)c2ccc(OC)c(OC)c2)cc1OC | – | inconclusive [inhibitor, single point]
Cc1cc(S(=O)(=O)Nc2ccc(C(=O)NCC3(N(C)C)CCCCC3)cc2)ccc1F | – | inconclusive [inhibitor, single point]
